The whole screen tested about 410,000 compounds, of which about 6,400 (1.6%) were called active. The inconclusive results got no clear call from the source; some entries with a clear call stand among them for comparison. Calls come from the whole dose curve; as a rule, active = well fitted inhibition curve with a large enough effect; inconclusive = small, poorly fitted or top-dose-only effect; inactive = no such curve, though single readings can be large or run the other way. Potencies of inconclusive entries are left out as doubtful fits.
Each compound was assayed against Glucagon-like peptide 1 receptor (Homo sapiens) (UniProt P43220) (assay: qHTS of GLP-1 Receptor Inverse Agonists (Inhibition Mode)). Conditions: HEK293 GLP-1R CRE-luciferase, luminescence, 24 h, GLP-1R form is constitutively active; activity change, negative = inhibition: at 38.3 µM (top of the series) unless noted.
In short: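 Inverse agonism was detected as reduced cAMP-driven luciferase luminescence after 24 h compound treatment. The cells were HEK293 clones expressing constitutively active human GLP-1R with the reporter. Reporter-only and GPR119 cell lines served as counterscreen controls.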
% is set by controls: 0 for no effect and ±100 for the full control effect; potency is the fitted concentration of half-maximal effect; tags give direction and shape of the fitted curve.
Note: nearly all actives have a fitted effect of over 55% in size.

Chain of UniProt P43220 (P43220 whole entry, looked up): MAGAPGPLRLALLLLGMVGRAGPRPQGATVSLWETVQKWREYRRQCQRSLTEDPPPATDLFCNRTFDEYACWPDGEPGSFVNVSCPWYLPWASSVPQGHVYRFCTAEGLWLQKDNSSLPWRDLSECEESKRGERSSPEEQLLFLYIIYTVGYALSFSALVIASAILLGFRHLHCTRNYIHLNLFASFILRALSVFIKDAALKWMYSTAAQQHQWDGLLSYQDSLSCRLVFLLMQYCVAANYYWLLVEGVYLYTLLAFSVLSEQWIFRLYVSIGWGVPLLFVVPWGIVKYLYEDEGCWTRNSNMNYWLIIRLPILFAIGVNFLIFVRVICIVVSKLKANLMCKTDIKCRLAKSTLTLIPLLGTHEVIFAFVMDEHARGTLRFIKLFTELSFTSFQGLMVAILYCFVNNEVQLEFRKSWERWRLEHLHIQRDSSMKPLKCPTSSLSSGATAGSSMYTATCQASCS

SMILES	Potency	activity change, negative = inhibition
CCOc1ccc(/C=N/NC(=O)C(=O)N2CCCCCC2)c2ccccc12	inconclusive [inhibitor, full curve, poor fit]	
Cc1ccc(CNC(=O)[C@H](C)[C@H]2C[C@]2(C)[C@H](NC(=O)OCc2ccccc2)c2ccccc2)o1	inconclusive [inhibitor, single point]	
O=C(/C=C(\O)c1ccc(Cl)cc1)C(=O)NNC(=O)C(O)(c1ccccc1)c1ccccc1	inconclusive [inhibitor, partial curve]	
CC1(c2ccc(OC(F)F)cc2)NC(=O)N(CC(=O)c2ccc3c(c2)OCO3)C1=O (stereo not given)	inconclusive [inhibitor, partial curve, poor fit]	
O=C(N/N=C/c1sc2ccccc2c1O)c1ccccc1	inconclusive [inhibitor, partial curve, poor fit]	
O=C(CN1CCN(S(=O)(=O)c2cc(Cl)ccc2Cl)CC1)Nc1ccc2c(c1)OCCO2	inconclusive [inhibitor, partial curve, poor fit]	
CN(c1ccccc1)S(=O)(=O)c1ccc(-c2ccccc2)cc1	inconclusive [inhibitor, partial curve, poor fit]	
COc1ccc(Br)cc1C1CC(=O)C(C)C(c2cc(Br)ccc2OC)N1 (stereo not given)		inconclusive: -83.1% [inhibitor]
COc1ccc(CN(C(=O)Nc2ccccc2)c2ccccn2)cc1OC	inactive	
Fc1ccc(-c2cc(C(F)(F)C(F)F)[nH]n2)cc1	inconclusive [inhibitor, partial curve, poor fit]	
CCOC(=O)c1c(C)[nH]c(CCC(=O)Nc2ccc(N(CC)CC)cc2C)c1C	inconclusive [inhibitor, single point]	
COc1cc2c(cc1OC)C(C)N(C(=O)c1cc3c(s1)-c1c(C)cccc1OC3)CC2 (stereo not given)	inconclusive [inhibitor, single point]	
CCOC(=O)C(NC(=O)c1ccccc1Cl)(Nc1sc2c(c1C(N)=O)CCC2)C(F)(F)F (stereo not given)	inconclusive [inhibitor, single point]	
COc1cccc(NC(=O)[C@H](CC(C)C)NC(=O)N2CCn3c2nc2ccccc23)c1	inconclusive [inhibitor, partial curve, poor fit]	
O=C(c1cccc(F)c1)N1CCC(N2CCOCC2)CC1	inactive	
c1ccc(N/N=C(\Cc2ncc[nH]2)c2ccccc2)cc1	inconclusive [inhibitor, single point]	
COc1ccc(C)cc1NC(=O)C(CCSC)NS(=O)(=O)c1ccc2c(c1)oc(=O)n2C (stereo not given)	inactive	
CNC(=O)C1CC(=O)N(CCc2ccc(OC)cc2)C(=Nc2ccc(OC)cc2)S1 (stereo not given)	inconclusive [inhibitor, partial curve, poor fit]	
O=C(CCOc1ccccc1)N(Cc1cccnc1)c1nc2c(Cl)cccc2s1	inconclusive [inhibitor, full curve, poor fit]	
Cc1ccc(C(C(=O)NC2CCCC2)N(Cc2ccccc2)C(=O)c2csnn2)o1 (stereo not given)	inactive	
CCOC(=O)c1cc(-c2ccccc2)nn1Cc1ccccc1	inconclusive [inhibitor, single point]	
N#Cc1ccc(COc2ccc(CCO)cc2-n2nc3ccccc3n2)cc1	inconclusive [inhibitor, partial curve, poor fit]	

SMILES	Potency	activity change, negative = inhibition
CN1C2CCC1CC(OC(c1ccccc1)c1ccccc1)C2 (stereo not given)	inconclusive [inhibitor, partial curve]	
Cc1ccc(C2c3[nH]c4ccccc4c3CCN2C(=O)c2ccc(N(C)C)cc2)cc1 (stereo not given)	inconclusive [inhibitor, partial curve, poor fit]	
COc1ccc(Br)cc1CN1CCCC(C(=O)N2CCCCCC2)C1 (stereo not given)	inconclusive [inhibitor, partial curve, poor fit]	
Cc1cccc(C)c1NC(=O)C(=O)NCCOc1ccc(Cl)cc1	inconclusive [inhibitor, partial curve, poor fit]	
COC(=O)Cc1ccc(OC2(C)CCN(Cc3csc4ccccc34)C2)cc1 (stereo not given)	inconclusive [inhibitor, single point]	
CC(=O)c1cccc(-c2ccnc3c2CC(C(=O)NCc2ccco2)O3)c1 (stereo not given)	inconclusive [inhibitor, full curve, poor fit]	
Cc1nc(C)c(-c2ccc(SCc3ccccc3F)nn2)s1	inconclusive [inhibitor, single point]	
COc1ccc(CCCNC(=O)C2Cc3c(-c4cccc(NC(C)=O)c4)ccnc3O2)cc1 (stereo not given)	inconclusive [inhibitor, full curve]	
Cc1ccc(NC(=O)C(Nc2cccc(C)c2)c2ccccc2)cc1 (stereo not given)	inconclusive [inhibitor, partial curve, poor fit]	
Cc1ccc2nc(SC(Cc3cc(Cl)ccc3Cl)C(=O)O)[nH]c2c1 (stereo not given)	inactive	
O=C(NCc1ccccc1)C1(CC2CC(c3ccccc3)=NO2)CCNCC1 (stereo not given)	inconclusive [inhibitor, single point]	
Cc1ccc(C2CC(c3cccs3)=NN2C(=O)c2ccc(Br)o2)cc1 (stereo not given)	inconclusive [inhibitor, single point]	
O=C(Nc1nnc(-c2ccc(Br)cc2)o1)c1cccc(N2C(=O)CCC2=O)c1	inactive	
O=C(O)c1cccc(-n2cccc2/C=C/[N+](=O)[O-])c1	inactive	
Cc1cc(OCC(=O)N2CCOCC2)ccc1NC(=O)c1ccccc1C	inactive	
COc1ccc2oc(C(=O)N3CCN(S(=O)(=O)c4ccc(F)cc4)CC3)c(C)c2c1	inconclusive [inhibitor, partial curve, poor fit]	
O=C(c1cccs1)N(Cc1ccco1)Cc1cc2ccccc2[nH]c1=O	inconclusive [inhibitor, single point]	
Cc1sc2ncn(-n3c(C)ccc3C)c(=O)c2c1C	inactive	
COc1cccc(-c2nc(CS(=O)(=O)CC(=O)NCCc3ccccc3)c(C)o2)c1	inconclusive [inhibitor, partial curve, poor fit]	
CCOC(=O)c1c(NC(=O)CSc2nnc3c(Cl)cc(Cl)cn23)sc2c1CCC2	inconclusive [inhibitor, partial curve, poor fit]	
CC(=O)c1cccc(NC(=O)CSc2nnc(C(C)N(C)C)n2Cc2ccccc2)c1 (stereo not given)	inconclusive [inhibitor, partial curve]	
O=C(O)C1CCC(C(=O)O)SS1 (stereo not given)	inactive	

SMILES	Potency	activity change, negative = inhibition
Cc1cnc(C(=O)Nc2ccc3c(c2)CCC3)cn1	inconclusive [inhibitor, single point]	
CC1=CC(=O)C=C(C)C1=NOc1ccccc1[N+](=O)[O-]	inactive	
C=CCNC(=O)c1ccccc1NC(=O)c1ccc(Cl)c(S(=O)(=O)Nc2cccc(C)c2C)c1	inconclusive [inhibitor, single point]	
Cn1c(CCCCCN)nc2ccccc21	inactive	
CC1=C(C(=O)N(C)C)CC(CC(=O)NCC2CCCCC2)C(=O)N1Cc1ccc(C(C)(C)C)cc1 (stereo not given)	inconclusive [inhibitor, partial curve, poor fit]	
Cc1ccc(C(=O)Nc2ccccc2)cc1S(=O)(=O)Nc1ccccc1	inactive	
COC(=O)c1c(C)oc2ccc(N(C(=O)c3ccncc3)S(=O)(=O)c3cc(C)ccc3C)cc12	inconclusive [inhibitor, full curve, poor fit]	
COc1ccc(NC(=O)COC(=O)c2c3c(nc4ccccc24)CCCC3)cc1	inconclusive [inhibitor, single point]	
CCOC(=O)[C@H]1[C@H]2COc3ccc(OC)cc3[C@@H]2N2C(=O)CN(Cc3ccc(Cl)cc3)C(=O)[C@@]12C	inconclusive [inhibitor, single point]	
N#Cc1c(F)cccc1N1CCN(Cc2ccc3c(c2)OCO3)CC1	active: 11.2 µM	
COc1ccc(OC)c(S(=O)(=O)N/N=C\c2cn(CC(N)=O)c3ccccc23)c1	inconclusive [inhibitor, full curve]	
COc1ccc2c(c1)c(/C=N/Nc1nc3ccccc3[nH]1)c(C)n2C	inconclusive [inhibitor, partial curve, poor fit]	
COc1ccc(CCNC(=O)CCCn2nc(C)c3sc4ccccc4c3c2=O)c(OC)c1	inactive	
O=C(Nc1ccc(Nc2ccccc2)cc1)C(Cl)Cl	inactive	
CC(=O)/C=C/c1ccc2ccccc2n1	inconclusive [inhibitor, single point]	
Cc1ccc(C)c(CN2C(=O)CSc3ccc(C(=O)N4CCCC4)cc32)c1	inconclusive [inhibitor, partial curve, poor fit]	
O=C(COC(=O)C1=COCCO1)Nc1cccc(Oc2ccccc2)c1	inconclusive [inhibitor, single point]	
Cc1cccc(NC(=O)CCNS(=O)(=O)c2ccc3c(c2)CCN3C(=O)C2CC2)c1	inactive	
CCOc1ccc(/C=N/NC(=O)Cn2ccnc2C)cc1	inconclusive [inhibitor, partial curve, poor fit]	
Cc1ccc(NC(=O)Cn2cc(C(=O)C3CCCCC3)c3ccccc32)cc1	inactive	
CCOc1ccc(NC(=O)c2ccc(Cn3nc(C)cc3C)o2)cc1	inconclusive [inhibitor, partial curve, poor fit]	

— PubChem BioAssay AID624417 (National Center for Advancing Translational Sciences (NCATS), 2012)
